The full ranking holds about 33,000 sequences; the median of “E-score (-0.5 to 0.5)” is about -0.043, and the highest 2% start at about 0.37. Some of the results follow.
Target: T1, Upc2 (UniProt Q12151)
T1 sequence: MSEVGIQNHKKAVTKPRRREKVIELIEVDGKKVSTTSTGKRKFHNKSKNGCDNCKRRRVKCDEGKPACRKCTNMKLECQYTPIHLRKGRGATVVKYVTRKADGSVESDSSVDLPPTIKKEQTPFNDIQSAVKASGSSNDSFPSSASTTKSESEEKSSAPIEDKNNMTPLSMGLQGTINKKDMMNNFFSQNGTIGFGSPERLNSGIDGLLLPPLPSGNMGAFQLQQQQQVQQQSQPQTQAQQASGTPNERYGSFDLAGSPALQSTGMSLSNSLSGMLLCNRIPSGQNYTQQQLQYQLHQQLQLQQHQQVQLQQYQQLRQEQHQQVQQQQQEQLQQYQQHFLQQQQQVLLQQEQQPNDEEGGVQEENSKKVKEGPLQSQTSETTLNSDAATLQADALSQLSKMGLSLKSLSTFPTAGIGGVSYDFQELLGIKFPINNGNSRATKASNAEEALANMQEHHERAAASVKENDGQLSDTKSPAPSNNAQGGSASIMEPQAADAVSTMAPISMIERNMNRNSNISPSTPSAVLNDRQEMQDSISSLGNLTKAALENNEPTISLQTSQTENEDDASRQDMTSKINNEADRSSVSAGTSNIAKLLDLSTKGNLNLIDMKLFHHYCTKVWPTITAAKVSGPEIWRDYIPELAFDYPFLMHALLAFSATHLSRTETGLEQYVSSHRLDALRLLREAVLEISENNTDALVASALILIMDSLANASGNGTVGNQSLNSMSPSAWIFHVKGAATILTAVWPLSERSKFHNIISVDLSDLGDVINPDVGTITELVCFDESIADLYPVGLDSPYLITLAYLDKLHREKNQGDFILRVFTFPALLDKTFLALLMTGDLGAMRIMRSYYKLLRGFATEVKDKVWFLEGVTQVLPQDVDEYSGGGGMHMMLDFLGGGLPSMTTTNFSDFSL
Experiment: PBM E-score (8-mer binding enrichment) (E-score (-0.5 to 0.5)); higher = stronger / more preferred TF binding; most listed sequences are background and not binding sites
Details: protein concentration: 200 nM; construct: GST-full length
Procedure, shortened: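 E-scores (a modified Wilcoxon-Mann-Whitney statistic) were assigned by the Universal PBM Analysis Suite to every ungapped eight-base word pooled with its reverse complement. The input came from universal all-10-mer Agilent arrays made double-stranded by primer extension and probed with GST-tagged yeast transcription factors at about 100-200 nM. Fluorescent anti-GST detected bound protein, and masliner normalised the scans.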

| Sequence | PBM E-score |
| --- | --- |
| GGACAACC | 0.0159 |
| ATCCATGC | -0.179 |
| CCAACGTA | 0.138 |
| CCCTGAGA | -0.243 |
| ACGTGTAT | 0.118 |
| AACACTAG | -0.1 |
| ATACGGCA | 0.422 |
| CGAAGTAA | 0.271 |
| GCGATACA | 0.0744 |
| ATGGCCCC | -0.177 |
| ATATCAAT | 0.0132 |
| ACATCTGA | -0.258 |
| CCGCGCTA | -0.0389 |
| ATCCTCTG | -0.0424 |
| AATTGCAT | 0.0605 |
| CTAGATAA | -0.0338 |
| ACAAATGT | 0.0916 |
| CAGCAAGG | -0.23 |
| GAGGAAGA | -0.17 |
| GTTCCATA | -0.028 |
| CAGAATTA | -0.0215 |
| CAGTGGCA | -0.319 |
| AGGGATGA | -0.297 |
| ATGAGTTA | -0.0964 |
| ATACTAGA | 0.0865 |

| Sequence | PBM E-score |
| --- | --- |
| TTCCAAAA | 0.0144 |
| CGCGGGTA | -0.113 |
| AACGACTG | 0.389 |
| AGCTGCAT | -0.108 |
| CACCTACG | 0.122 |
| AAATTTCC | -0.00442 |
| AGTAGGAT | 0.0191 |
| TTCTGCAA | 0.111 |
| ATATGCTC | 0.0393 |
| ATACGCAT | 0.362 |
| CACGGCGG | -0.086 |
| ACCTATCA | -0.11 |
| ACCTAGTA | -0.235 |
| AAGATAAG | -0.119 |
| AATCATCT | -0.216 |
| CCTGGTCA | -0.262 |
| AGATCGTG | 0.0463 |
| AAGGCCCA | -0.237 |
| CACGCATG | -0.23 |
| GGTCCCAA | -0.297 |
| CGACTGGA | 0.11 |
| CCCCCAGC | -0.167 |
| CATACCGA | 0.0922 |
| AGACCTGC | -0.249 |
| AACCGAAA | 0.257 |

| Sequence | PBM E-score |
| --- | --- |
| AAGACTTA | -0.0413 |
| AGTCTGCC | -0.217 |
| GGGCTGTA | -0.0846 |
| TACCGGTA | 0.115 |
| AGACGATA | 0.138 |
| AATGCGGA | 0.0378 |
| CTGAGTCA | -0.0602 |
| AACCAAGT | 0.112 |
| ATGTGACC | -0.122 |
| ATGAGAGA | -0.0654 |
| AAGCAGGA | -0.047 |
| CCATATGG | 0.0747 |
| GGCCTTAA | -0.0394 |
| TCTGCCAA | 0.0469 |
| CCCCTTGA | -0.112 |
| TAGGTTCA | 0.0174 |
| AGCTAGAT | -0.0602 |
| ATAGGAGA | -0.0816 |
| GGCCGTAA | 0.255 |
| ACTAATCG | 0.181 |
| CGCGCTAG | -0.0533 |
| GAGCACGA | 0.1 |
| GATGATCA | -0.0107 |
| GCCATACA | 0.093 |
| ATCCACAC | -0.195 |

| Sequence | PBM E-score |
| --- | --- |
| TACTTCCA | -0.00592 |
| AAGTGTCG | 0.171 |
| CGTCGGTC | 0.185 |
| GTGGTTAA | 0.0266 |
| GCGGGGAC | -0.163 |
| AGGTATAA | 0.198 |
| CGTCGTGC | 0.0916 |
| AATGTAAA | 0.0929 |
| ACTAGGGG | -0.125 |
| TGCCTACA | -0.0509 |
| AGAATGCA | -0.00342 |
| CGGCATGC | -0.0612 |
| GTTAGCTA | -0.0162 |
| CCGGAATA | -0.0728 |
| GTTAAGCA | -0.0899 |
| GCAGACAC | -0.0421 |
| ATCAAATG | -0.0163 |
| ACGGCCAG | -0.00694 |
| AAAGTCAA | -0.137 |
| AGTTAAAC | 0.241 |
| AACCATGC | -0.101 |
| ACTTAGGC | -0.349 |
| ACCCCGTC | -0.0492 |
| CTGCCAAC | -0.0381 |
| GGCCCAAC | -0.123 |

| Sequence | PBM E-score |
| --- | --- |
| GCTCTGAC | -0.242 |
| ACCACATG | -0.162 |
| CCGGAACA | -0.189 |
| TAAATGAA | 0.00813 |
| AGAACGGG | 0.147 |
| CTGAAAAA | -0.0416 |
| CCTTATTC | -0.115 |
| ACAACGTA | 0.161 |
| ACACCGCC | -0.0148 |
| GATCACAC | -0.178 |
| CGGTTCCA | 0.152 |
| GCTGTCAC | -0.189 |
| AGGGTTTC | -0.276 |
| CACTCTAG | -0.141 |
| CCCGGAGG | -0.268 |
| CTATCTAA | -0.067 |
| GCAGGCAA | -0.239 |
| AGTCCAGG | -0.277 |
| AACAAGAT | -0.00017 |
| CAACCGCG | -0.00782 |
| CGATGCAC | -0.0246 |
| AAATCAAT | -0.0433 |
| CGGCCCCG | -0.135 |
| AGGGTTAC | -0.0122 |
| GCGGACGC | -0.169 |

| Sequence | PBM E-score |
| --- | --- |
| CCCATTGC | -0.184 |
| ACAGGTAC | 0.23 |
| TATCAGGA | 0.0996 |
| CAAACATC | -0.00545 |
| AACGCGCC | 0.192 |
| AAATAGTT | -0.014 |
| ATGGTAAG | -0.137 |
| GAAATTCC | -0.186 |
| ACCTACAA | -0.0249 |
| CTCGACTC | 0.034 |
| CACCCTAA | 0.0059 |
| GCGCTCAA | -0.0887 |
| ATCACTGC | -0.0525 |
| CGCCTCCA | -0.0849 |
| GAACGATC | 0.429 |
| TCACTGGA | -0.289 |
| CCTCCCGA | -0.053 |
| CTACCCGC | -0.283 |
| GTCTGTAA | 0.0716 |
| GGATGGAC | -0.0397 |
| CATTCTGA | -0.0524 |
| ACAGTTCA | 0.0458 |
| ACTCTAAG | -0.215 |
| CGATTGCA | 0.106 |
| ACTAGTCG | -0.0858 |

| Sequence | PBM E-score |
| --- | --- |
| CCCCTTAG | -0.0378 |
| AACAACCC | 0.108 |
| CTGTCCTA | -0.121 |
| GATTCGTA | 0.438 |
| CATCGAAG | -0.137 |
| AATTCTGG | -0.138 |
| ATTCGTGC | -0.094 |
| ACTCATTC | -0.0932 |
| GTATATTA | 0.21 |
| CGCTATCC | 0.151 |
| AGGTCTAC | 0.0393 |
| TCTCCAAA | -0.107 |
| AAAGGCTT | -0.178 |
| AATGTTGA | -0.14 |
| TGATAGAA | -0.073 |
| GATTCTTA | 0.137 |
| AAGTGCTG | 0.0542 |
| GAGCTTAA | -0.0033 |
| CTTCCACC | -0.173 |
| CCGGTACG | 0.421 |
| AGGAGTAA | -0.183 |
| GCACTCGA | -0.074 |
